167 variants from the RNAGym collection of RNA variant scans (doi:10.7554/elife.90254) can be followed below.

Read counts are not given, so values of variants with three or more changes are uncertain.

B1: LINE1-full (parent)
chain: UACGUAGGUGGUUUUCCCCUGAUAGUGCUAAGGGGGCCUGGAAGUUUGGACUGGGCAGAGCUCAACACAGCGUGGCAAAGUGGCUGUGGCUAGACUGCCUCUCUGGAUUCCUCGUCACUCAGCAGGGCAUCUCUGAGAGAAAUGCC

In this series the parent is B1. The series can be described thus: self-cleavage, relative activity (ratio to wild type); higher = more cleavage; in vitro, sequencing; the parent is a self-cleaving ribozyme.
Regarding U14C U47C G80U, the self-cleavage amounted to 1.11.

With U14C U62C U100A, the self-cleavage was determined as 0.18. Turning to U15A A43G C118U, the self-cleavage came out at 1.51. As for U15A C17A A22G G86U G122A, the self-cleavage was 0.31. The result for U14G U45C U62C A78G reads 0. Consider U14C U85C U108A, for which the self-cleavage was found to be 0.37. The result for U14C U81G U87A U96C reads 0.05. Then U15A G32A A77G A124G A129U, with 1.41. The result for U14C U62A U104C reads 0.08; that for U14C U29C U134A, 0.14; that for U14C U46A A140U, 1.43.

With U14C U47C A121C, the self-cleavage is 0.77. Take U14C U45C C76U: the self-cleavage worked out at 1.91. Then U14C U39C A59U, with 0.5; and U14C U46C U112C A138G, with 1.64; and U14C U39A U87A U96A, with 0. Then U14C U29C G32U A77C G83A, with 0; and U14C U87C U143C, with 0.46.

For the variant U14C U39A A107G U115C, the self-cleavage stood at 1.84.

U14C U39C A124G A141G: the self-cleavage worked out at 1.7. Regarding U14C U26C A42G A59G U108C G127A, the self-cleavage stood at 0.44. Then U14C U45C A94U U108C C118U U119C, with 0.75; and U14C U26C A59G A69G A78U, with 0; and U14C U29C A43G A57G A107G, with 0.

U15A A31G A65G C71U: the self-cleavage turned out to be 0.

U14C U47G A65U U73C A77U: the self-cleavage came out at 0. Then U14C U39G A78G, with 1.23; and U14C U45A A57C U134C, with 0.22. In the case of U15A A78U U119A, the self-cleavage amounted to 1.53. The result for U15A A50U A64G U134C reads 0.23; that for U14C U73A U96C C98A G122U A140G, 0.04; that for U15A A22G A67C A94U, 0. The result for U15A A57G A77U U96A U100A reads 0.07; that for U14C U45A A124G A129G, 1.21; that for U15A A69G U112C A140U, 0.16. Turning to U14C U81C A117U G139A, the self-cleavage amounted to 2.44.

Turning to U15A A64G U85C U91A, the self-cleavage turned out to be 0.63.

Regarding U14C U45C G49U A121G, the self-cleavage was determined as 2.68.

On to U14C U39A A69C, for which the self-cleavage was 0.16. The result for U14G U39C A79G reads 1.41; that for U14C U73C G93A A129G A141G, 0. Take U15A A64U U115C U134G: the self-cleavage came to 0.52. The result for U15A C51A G139U reads 1.99. Consider U14C U87A U109C A141G, for which the self-cleavage was 0.12. The result for U14G U39A U45C C146U reads 1.09; that for U15A A30U A77G U102A, 0.74. Then U14C U47G A50G A107U A142G, with 0.51; and U14C U100C A141G, with 1.68.

Take U14C U46A C116U: the self-cleavage amounted to 1.39. For the variant U15A G27A G34U A57G A136G, the self-cleavage came to 1.84.

U14C U52A A124U: the self-cleavage was 0.

For the variant U14G U100A A142G, the self-cleavage is 0.57.

As to U14C U62C A64G A129G, the self-cleavage was found to be 0. The result for U14C U96A U134C A140G reads 0.21; that for U14G A31U A59C A117U, 0.46; that for U14C U47A A67G G82A U108C, 0.33. The result for U15A A50G A138G G144U reads 0; that for U14C U39A A121C, 1.46. For the variant U14C U29C U100A, the self-cleavage amounted to 1.58.

For the variant U15A A57G G82A U132C, the self-cleavage is 0.84. In the case of U14C U46C G125U U143A, the self-cleavage came to 1.23.

With U14C U62C C128U, the self-cleavage was 0.01. In the case of U14C U23C G32U, the self-cleavage turned out to be 0.61. U14C U73A A78U A124G: the self-cleavage came out at 1.39. The result for U14C U73A G75U C98U U100C U104C reads 1.39. Take U14C U62C A92U: the self-cleavage came to 0.05. As to U14C U29A A107U, the self-cleavage is 0.55. The result for U14G A92U A121G A142G reads 1.02; that for U14C U62A U109C, 0; that for U14C U26C U87C U91A, 0. Then U14C U47C A78G A124U, with 1.4; and U15A A57U U134C, with 0.09; and U14C U45A U81C, with 0. Regarding U14C U23C U39C A59G, the self-cleavage came to 0. Then U14C U39C A77G A129U, with 1.44. The result for U14C U52A A140G reads 1.18; that for U14C U62C G89A A129U A140G, 0.07. The result for U15A A30U U46C U81C U91C reads 0; that for U14C U45C U73A, 2.63; that for U14C U73C U102A G144A, 2. As for U14C U47C U73A, the self-cleavage stood at 1.58. As for U14C U87A U109A U130C, the self-cleavage was determined as 0.07.

As for U14C U87C A117U, the self-cleavage was 0.32. On to U15A G25A U52A U73A A142G, for which the self-cleavage came to 1.15. For the variant U15A C19U U47C, the self-cleavage is 0.47. The result for U15A A22G U109C reads 1.31; that for U15A A77U A78G U143C, 0.71.

For U14C U52A U87A, the self-cleavage is 0.14. Then U14C U39C A79G U104G U119A, with 1.15; and U14G U102A A129G, with 1. The result for U14C U52A U62C A78G reads 0.

U14C U47G A142G: the self-cleavage was 1.49. For the variant U15A A107G U132C, the self-cleavage stood at 0.84.

As for U14C U62A A121C, the self-cleavage was found to be 0.17. As for U14C U102C U108C A141G, the self-cleavage was found to be 0. Then U14C U23C G44A, with 1.13; and U14C U52A A94U A141U, with 0.35. The result for U14C U109C U134C C145U reads 1.48; that for U15A A59G A140G, 0.41; that for U15A A22U C123U A124G, 0.37. Regarding U14C U132A A136G, the self-cleavage is 1.2. Then U14C U45C U46C A77U, with 1.99; and U15A G27A U102C, with 1.75; and U14C U45C A64G G106U, with 0.19. Then U14C U47C C131U A138G, with 1.15. For the variant U14C U85A U108A, the self-cleavage was determined as 0.15. As to U14C U85A U108C, the self-cleavage turned out to be 0.18.

For U14C U85G U104C A121C, the self-cleavage stood at 0.

U14C U102C A124G A138G: the self-cleavage amounted to 0.84.

For U14G A67U U102A, the self-cleavage stood at 0.05. The result for U14C U62C U81A U87C reads 0.16.

Consider U14C U26C U46C A94G A136U, for which the self-cleavage was 0. The result for U14G C51U A57G U73A reads 1.02; that for U14C U26A A121U, 1.27.

On to U14C U39C A64G U85A U134A, for which the self-cleavage stood at 0.6.

For U15A C37U U62C, the self-cleavage stood at 0.05. As to U14C U102C U119C C145U, the self-cleavage amounted to 1.37. The result for U14C U39C A141G reads 0.68; that for U15A A50G U100C, 1.81; that for U14C U45A C51U C71U, 0.74. For the variant U14G A22G G125A, the self-cleavage was 0.75.

Take U14C U26C A94G U100C: the self-cleavage is 0.

Take U15A A69U A129G A142G: the self-cleavage is 0.56.

U14G A65U U132A: the self-cleavage was found to be 0.79. Then U14G U62A A142G, with 0.09; and U14C U73A A142G, with 1.43.

With U15A A43G U96C, the self-cleavage came to 0.57.

Turning to U14G A42G A67G, the self-cleavage was determined as 0.44. Take U14G U46C U81A C98U A136G: the self-cleavage stood at 0.82. Then U14C U85A A140G A141G, with 0.11; and U14G U108A U115A G126A A140G, with 1.59; and U14G U102C U134A A138G, with 0.42. The result for U15A A30U G41A U52A A57G reads 0.54. For the variant U14C U39C U81A U102C, the self-cleavage was found to be 1.53. For the variant U15A A67G U87C, the self-cleavage was found to be 2.3. Then U14G U115C A136U, with 1.58; and U14C U46C A142G, with 1.12; and U15A C19U U115C U119C, with 1.77. For U15A C113U U119C A141U C145U, the self-cleavage stood at 0.57. Then U15A A65G U81A U85A, with 0.05; and U14C U52G U119C A121U, with 1.15.

For the variant U15A A43U A64G A79G A140G, the self-cleavage was 0.14.

On to U14G A31G U52A, for which the self-cleavage is 1.04. Then U14C U87A A124G U132C, with 0.04; and U14C U39A U87C, with 0.41; and U14C U29A U45C U85C A141G, with 0.46.

As to U14C U26C G35A A50U, the self-cleavage was 0.31.

Turning to U14C U46C A94U G127A, the self-cleavage was 0.42. As for U14G U45C A136G, the self-cleavage came to 0.92. As to U14C U45C U119C A129U, the self-cleavage came out at 1.04. Then U14C U73A A136G, with 2.03. The result for U14C U47G C51U A136U reads 1.16. The result for U14C U104C U112C G126A reads 1.99; that for U14G U130A C131G, 0. On to U15A A50U U102A A138G, for which the self-cleavage turned out to be 1.19.

Regarding U14C U26A U134A, the self-cleavage turned out to be 0.38. U14C U62C A129G: the self-cleavage turned out to be 0.07.

Take U14C U73C A77G A92U A129U: the self-cleavage stood at 0. Then U15A A24G A138G, with 1.44; and U14C U46C A121U U132A, with 1.39; and U15A A77G U96C, with 0.15.

With U15A C19A G72A U100C, the self-cleavage stood at 1.11.

As to U15A A30U U52C, the self-cleavage came to 1.28. Then U15A A31G A64G U96C A121U, with 0; and U14C U47C A57G G83U, with 0.54; and U14G A50G U52C G82A U130G, with 1.44. The result for U14C U46A U52A A129G reads 2.96.
